Out of some 150,000 compounds screened, about 540 (0.36%) showed an effect of 50% or more. This is one part of the list.

This test deals with Plasmodium falciparum. In words: Primary screen in NF54 nanoGlo assay, in single point, at 2uM, 72h; a lower Z score goes with more inhibition. It counts as functional, Erythrocyte. As to conditions: timepoint 72 hour.
On to `Cc1noc(CNC(=O)c2nnn(-c3ccccc3)n2)n1`, for which the “% Inhibition” value is listed as -11% and the Z score is on record as 2.
Consider `COc1cccc(Oc2ncnc3oc(C)c(C)c23)c1`, for which the “% Inhibition” value worked out at 4% and the Z score was -0.49.
`CC(C)CCN1C[C@]2(CCCN(C(=O)c3n[nH]c4c3CCC4)C2)CCC1=O`: the “% Inhibition” value is recorded as -6% and the Z score is on record as 0.72.
In the case of `O=C1CCC2(CCN1)CCN(S(=O)(=O)c1ccccc1F)CC2`, the “% Inhibition” value is reported as -10% and the Z score is 1.75.
For `Cn1nc(CN(Cc2ccco2)C(=O)N2CCN(S(C)(=O)=O)C2=O)c2c1CCC2` the same measures were 15% and -1.91.
For `O=C(c1ccc2c(c1)OCCO2)N1CCN(S(=O)(=O)c2ccccc2)CC1` the same measures were 4% and -0.48.
For `Cc1cc(C(=O)NC2(CN3CCN(c4ccc(F)cc4)CC3)CC2)ns1` the same measures were -10% and 1.65.
With `Cc1ccc(Nc2ncccc2S(=O)(=O)Nc2ccc(F)cc2)cc1F`, the “% Inhibition” value was -3% and the Z score is recorded as 0.42.
For `CCOc1ccccc1NCc1cc(=O)n2nc(-c3ccc(F)cc3)nc2[nH]1` the same measures were -2% and 0.26.
For `COCc1cc(N2CCCCCCC2)n2nccc2n1` the same measures were -22% and 2.04.
Take `CCCOc1ccc(C(=O)OC[C@@H]2CCC[N+]3(C)CCCC[C@H]23)cc1` (stereo partly specified): the “% Inhibition” value is recorded as -14% and the Z score is listed as 1.23.
For `Cn1ccnc1CN1CCN(C(=O)c2cccc(-c3ccncc3)c2)CC1` the same measures were -7% and 0.88.
For `COc1ccc(Nc2ncnc3c(-c4ccccc4)noc23)cc1OC`, the “% Inhibition” value is listed as -11% and the Z score is on record as 2.04.
For `COc1ccc(NC(=O)CC[C@@H]2CN(Cc3ccccc3)CC[C@@H]2N2CCCC2)cc1OC` the same measures were 3% and -0.47.
In the case of `Cc1ncc(S(C)(=O)=O)c(NCc2c(F)cccc2Cl)n1`, the “% Inhibition” value is reported as -8% and the Z score is given as 0.96.
Consider `c1cc(N2CC[C@]3(CCOC3)C2)c2sccc2n1`, for which the “% Inhibition” value was -10% and the Z score stood at 1.52.
For `C[C@@](NC(=O)C1CCS(=O)(=O)CC1)(c1ccccc1)C(F)(F)F` the same measures were -6% and 1.04.
For `Cc1nn(C)c2nc(NCCc3cn[nH]c3)sc12`, the “% Inhibition” value is recorded as 10% and the Z score was -1.83.
For `Cc1nc(-n2nc(C)c(CC(=O)Nc3ccccc3)c2O)sc1C` the same measures were -4% and 0.47.
For `O=C(Nc1cccc(-n2cnnc2)c1)C1CC1c1ccccc1C(F)(F)F` (stereo unspecified) the same measures were 27% and -3.89.
For `COCCc1nc2c(c(N3CCN(c4ccc(Cl)cc4)CC3)n1)CCOCC2` the same measures were -14% and 1.33.
With `Cn1cc(C(=O)NC(C2CCC2)C2CCC2)c(-c2ccco2)n1`, the “% Inhibition” value is given as -11% and the Z score is reported as 1.42.
For `c1ccc(-c2noc([C@@H]3CCCN3Cc3ncc[nH]3)n2)nc1` the same measures were -16% and 1.73.
For `c1ccc2nc(NCC3CCCCC3)cnc2c1` the same measures were -16% and 1.48.
For `O=C(NCc1nccn1CCCc1ccccc1)c1ccon1`, the “% Inhibition” value is -1% and the Z score is 0.1.
With `O=S(=O)(C[C@H]1COCCO1)NCCNc1ccccc1`, the “% Inhibition” value worked out at 1% and the Z score was -0.08.
For the compound `Cc1ccc(CNCc2cccnc2-n2ccnc2)o1`, the “% Inhibition” value is given as -12% and the Z score was determined as 1.54.
For `Cc1nc(-c2cnn(C)c2)oc1C(=O)N[C@H](C)C(C)(C)C` the same measures were -8% and 0.93.
Consider `COc1ccc(C)cc1NC(=O)C1CCN(S(=O)(=O)Cc2cccc(C)c2)CC1`, for which the “% Inhibition” value is -8% and the Z score stood at 1.45.
For the compound `Cn1ncc(NC(=O)Cn2cc(-c3ccc4cc(Cl)ccc4n3)cn2)n1`, the “% Inhibition” value is -1% and the Z score is 0.12.
For `COC(=O)C(NC(=O)C(C)Oc1ccccc1)C(C)C` (stereo unspecified) the same measures were 12% and -1.65.
As to `Cc1n[nH]cc1CN[C@H]1COc2ccccc21`, the “% Inhibition” value was -12% and the Z score amounted to 1.86.
For `CCn1ccnc1[C@H]1OCCC[C@@H]1NCc1ccc(Cl)cc1` the same measures were -9% and 1.38.
For `CC(=O)NCCCC1(C2OCCO2)CCCCCC1` the same measures were -4% and 0.41.
For `Cc1ccc(NC(=O)N2CCC2(C)C)cc1NC(=O)N1CCC1(C)C` the same measures were -7% and 1.25.
Consider `OCc1cc(-c2cc(NC3CCCC3)nc3[nH]ccc23)ccc1O`, for which the “% Inhibition” value is -10% and the Z score was 1.89.
For `Cc1nc(C(C)C)cc(N2CCN(C)[C@]3(CCC(=O)N(CC4CC4)CC3)C2)n1`, the “% Inhibition” value stood at 9% and the Z score is reported as -0.79.
For `OC[C@H](CNc1ccc(Cl)cn1)Cc1ccccn1` the same measures were 6% and -0.62.
For `Cn1c(-c2ccncc2)nc2cc(C(=O)NCCc3ccco3)cc(NC(=O)C3CCC3)c21` the same measures were -30% and 3.63.
For `COc1ccc(NC(=O)c2c(O)c3cnn(-c4ccc(F)cc4)c3[nH]c2=O)c(OC)c1` the same measures were -1% and 0.18.
On to `COc1ccccc1C(N)=NOCCC(C)(C)O`, for which the “% Inhibition” value was -2% and the Z score turned out to be 0.28.
In the case of `CCn1ccnc1[C@H]1OCCC[C@@H]1NC(=O)c1ncnc2[nH]ccc12`, the “% Inhibition” value is listed as -7% and the Z score turned out to be 1.32.
For `O=c1c2ccccc2ncn1C[C@H]1CC[C@H](C(=O)Nc2ccc3c(c2)OCCCO3)CC1` the same measures were -13% and 2.49.

In general, % Inhibition refers to the change of the read-out against control, counted positive when it falls.

The values are drawn from ChEMBL document CHEMBL4888484, “Replenishing the malaria drug discovery pipeline: Screening and hit evaluation of the MMV Hit Generation Library 1 (HGL1) against asexual blood stage Plasmodium falciparum ,using a nano luciferase reporter read-out” (2022).
